Measurements as given in publication PMC6919601, “Identification of Plasmodium dipeptidyl aminopeptidase allosteric inhibitors by high throughput screening” (PLoS ONE, 2019).
About 230 (0.21%) of roughly 110,000 compounds showed an effect of 50% or more. The list shows a part of the results.

Each compound was assayed against DPAP1 (Plasmodium falciparum, UniProt Q8IIJ9) (assay: primary screen, percent inhibition; read by cleavage of a fluorogenic dipeptide substrate; higher = more effect of the substance).
DPAP1, sequence (Q8IIJ9 whole entry, looked up): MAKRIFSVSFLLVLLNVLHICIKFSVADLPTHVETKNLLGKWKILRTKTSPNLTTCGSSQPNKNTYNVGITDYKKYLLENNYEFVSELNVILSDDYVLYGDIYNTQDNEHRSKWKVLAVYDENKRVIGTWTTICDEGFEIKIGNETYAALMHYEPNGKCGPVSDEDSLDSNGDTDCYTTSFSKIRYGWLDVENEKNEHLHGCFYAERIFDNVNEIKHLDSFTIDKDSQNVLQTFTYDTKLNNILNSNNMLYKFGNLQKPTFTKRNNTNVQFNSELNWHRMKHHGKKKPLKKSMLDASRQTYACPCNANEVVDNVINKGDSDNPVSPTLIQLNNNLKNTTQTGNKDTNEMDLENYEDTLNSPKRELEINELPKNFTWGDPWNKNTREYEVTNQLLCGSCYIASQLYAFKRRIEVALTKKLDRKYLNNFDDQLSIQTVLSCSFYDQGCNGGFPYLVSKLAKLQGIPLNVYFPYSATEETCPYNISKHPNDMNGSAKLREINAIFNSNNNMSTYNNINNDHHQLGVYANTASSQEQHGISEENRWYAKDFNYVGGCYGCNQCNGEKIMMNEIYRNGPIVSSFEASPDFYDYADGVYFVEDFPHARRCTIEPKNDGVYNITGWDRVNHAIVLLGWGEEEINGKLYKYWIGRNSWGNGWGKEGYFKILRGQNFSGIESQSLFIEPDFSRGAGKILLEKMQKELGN
Set-up: species or system P. falciparum D10 trophozoite lysates; single well
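Further: 30 min substrate incubation versus DMSO and 10 µM JCP410 controls.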

Row | SMILES | % Inhibition @ 10 uM
1 | N#CCc1ccc(NC(=O)c2ccccc2)cc1 | 2.49%
2 | CC(C)Oc1ccc(CNCCC(c2ccccc2)c2ccco2)cc1 (centres unmarked) | -3.28%
3 | Cc1cc(C)nc(NC(=O)NS(=O)(=O)N(Cc2ccccc2)c2ccccn2)n1 | -6.52%
4 | CC1(C)CC(=O)C(/C=N/c2ccc(/N=C/C3=C(O)CC(C)(C)CC3=O)c(O)c2)=C(O)C1 | -1.37%
5 | CCCCOc1ccc(N2C(=O)CC(N3CCSCC3)C2=O)cc1 (centres unmarked) | 0.983%
6 | CCCNS(=O)(=O)c1c(C(=O)OCC)c(C)n(C)c1C | 1.84%
7 | CCN(CC)CCNC(=O)c1cc(O)nc2ccc(Br)cc12 | 1.62%
8 | CC(=O)Nc1cc2nc3[nH]c(=O)[nH]c(=O)c3nc2cc1C | 4.26%
9 | COc1ccc(N2CCN(C(=O)c3oc4ccc(C)cc4c3C)CC2)cc1 | -5.6%
10 | Cc1nc2c(c(C)nn2C(C)(C)C)c(C)c1CCC(=O)NCc1cccnc1 | -6.09%
11 | CCOC(=O)N1CCN(C(=S)Nc2ccc3nccnc3c2)CC1 | 1.4%
12 | CCc1ccc(C2=CC(c3cccc(OC)c3)n3ncnc3N2)cc1 (centres unmarked) | -5.19%
13 | CC(C)(C)OC(=O)N1CCC(c2c(C(=O)NC3CCCC3)cnn2-c2ccccc2Cl)CC1 | -8.37%
14 | CCN1CCN(c2oc(COc3ccccc3)nc2C#N)CC1 | -4.62%
15 | Cc1nn(C)cc1/C=C1/CC2C3CC=C4CC(O)CCC4(C)C3CCC2(C)C1=O (centres unmarked) | 3.94%
16 | CCOc1ccc(NC(=O)c2ccc(C)c(C)c2)cc1 | 2.22%
17 | O=C(NCc1ccccn1)NCc1noc2ccccc12 | -1.11%
18 | CCc1cc2c(=O)c(-c3nc4ccccc4[nH]3)coc2cc1O | 0.00784%
19 | Cc1ccccc1CNC(=O)C(C)n1nc(C)c2sc3ccccc3c2c1=O (centres unmarked) | -2.61%
20 | O=C(COc1ccccc1)Nc1cccc(Cl)c1 | -1.97%
21 | CCN1CCC(N2CCN(C(C)=O)CC2)CC1 | -0.0908%
22 | O=C(Cn1cnc2onc(-c3ccc(F)cc3)c2c1=O)Nc1ccc(Cl)cn1 | 5.52%
23 | CN1C(=O)NC(=O)/C(=C\c2cccn2C)C1=O | 5.31%
24 | Cc1cccc(OCc2nnc(SCC(=O)Nc3nccs3)o2)c1 | -7.34%
25 | O=C(Cn1ncc2ccsc2c1=O)NCCN1CCOCC1 | 3.59%
26 | CCOC(=O)C1CCN(Cc2ccc(OC)c(OCC)c2)CC1 | -1.92%

Row | SMILES | % Inhibition @ 10 uM
27 | Cc1nn(C(C)C(=O)NCCc2c[nH]c3ccccc23)c(=O)c2c1sc1ccccc12 (centres unmarked) | -6.47%
28 | CSc1nnc(NC(=O)c2cc(=O)c3cc(C)cc(C)c3o2)s1 | -1.47%
29 | O=C(C1CCN(S(=O)(=O)c2cccs2)CC1)N1CCC(Cc2ccccc2)CC1 | -2.65%
30 | Cc1nn(C)cc1CNC(=O)c1ccc(Br)o1 | -4.24%
31 | COc1ccccc1-c1c(C)nn2c(SCC(=O)N3CCN(C4CCCCC4)CC3)cc(C)nc12 | -5.32%
32 | COc1ccc(S(=O)(=O)N(C(=O)c2ccncc2)c2ccc3oc4c(c3c2)CCCC4)cc1 | -0.123%
33 | Cc1c2cnn(CC(=O)NCCCc3ccccc3)c(=O)c2c(C)n1Cc1cccc(Cl)c1 | -3.96%
34 | Cc1ccnc(NS(=O)(=O)c2ccc(-c3cc(C)no3)cc2)c1 | 0.453%
35 | O=C(c1cc(-c2ccc3c(c2)OCO3)nc2ccccc12)N1CCOCC1 | -5.49%
36 | COc1ccc(OC)c(C2C3=C(O)CCCC3=NC(C)=C2C(=O)Nc2ccc(Br)cn2)c1 (centres unmarked) | 3.05%
37 | CN(C)Cc1ccccc1Sc1ccc(O)cc1 | 1.19%
38 | CCOc1ccccc1-c1nc(-c2cc3ccc(C)cc3nc2O)no1 | -3.5%
39 | COc1ccccc1NC(=O)C1=C(C)Nc2nc(CCCO)nn2C1c1ccc2c(c1)OCO2 (centres unmarked) | 2.4%
40 | CC12CCC(C(=O)N(CN3CCOCC3)C1=O)C2(C)C (centres unmarked) | -0.28%
41 | CCOC(=O)C1=C(C)N=c2s/c(=C\c3ccc(C)o3)c(=O)n2C1c1ccc(Cl)cc1 (centres unmarked) | 11.9%
42 | COc1cccc(C2C(C(=O)c3ccc4c(c3)CC(C)O4)=C(O)C(=O)N2CCN2CCOCC2)c1 (centres unmarked) | -3.77%
43 | O=C(c1cc2c(=O)oc3ccccc3c2s1)N1CCN(c2ncccn2)CC1 | -4.23%
44 | CCOc1ccc(C(=O)N2CCC3(CC2)N=C(c2ccc(C)cc2)C(=O)N3)cc1OCC | 3.05%
45 | CCOCCCNC(=O)c1c(OC)cccc1OC | -7.37%
46 | CC(=O)c1cc2c(cc1NC(=O)c1ccccc1Cl)OCO2 | -7.28%
47 | CCC1CCCCN1CCNC(=O)CCCCn1c(=S)[nH]c2c([nH]c3ccc(OC)cc32)c1=O (centres unmarked) | -3.95%
48 | CCn1ncc(Cl)c1C(=O)Nc1cccc(OC)c1 | -2.76%
49 | CCn1c(C(=O)NCc2ccccc2OC)cc2sc(Cl)cc21 | -4.85%
50 | Cc1nc2cc(C(=O)NCCN3CCOCC3)ccc2n1-c1cccc(F)c1 | 1.2%
51 | O=C(NCc1ccccn1)c1ccc(Cn2c(SCc3ccc(F)cc3)nc3cccnc32)cc1 | 0.174%
52 | Cc1ccccc1C(=O)c1cccn1CC(=O)NCCCSC1CCCCC1 | -4.04%

Row | SMILES | % Inhibition @ 10 uM
53 | CCOCCCNC(=O)C1CCN(c2nc3ccc(OCC)cc3s2)CC1 | -5.19%
54 | COc1ccccc1OCC(=O)Nc1ccc(S(=O)(=O)NC(C)=O)cc1 | 1.28%
55 | CC(C)CC(=O)N1CCN(C(=O)c2ccc(F)cc2)CC1 | -3.39%
56 | O=C(CC1C(=O)Nc2ccccc2S1=O)Nc1cccc(Cl)c1 (centres unmarked) | 0.161%
57 | O=C(NCCCN1CCCC1)C(c1ccccc1)N1Cc2ccccc2C1=O (centres unmarked) | 0.56%
58 | CS(=O)(=O)CCC(C(=O)Nc1cccnc1)N1Cc2ccccc2C1=O (centres unmarked) | 5.8%
59 | COc1ccc(C2C(C#N)=C(N)Oc3cc(O)ccc32)cc1OC (centres unmarked) | -4.67%
60 | N#Cc1cc(Sc2ccc3ccccc3c2)ccc1N | -4.06%
61 | COc1cccc2c(O)c(C(=O)O)cnc12 | 0.51%
62 | Cc1cc(C)cc(NC(=O)c2ccccc2Br)c1 | 5.56%
63 | COc1cccc2c1Oc1nc(-c3cc(Cl)ccc3O)nc(O)c1C2 | 2.32%
64 | Cc1ccc(NC(=O)C2=Cc3sc(C)c(C)c3CS2)nc1 | 18.7%
65 | COc1ccccc1N1CCN(C(=O)c2ccc(Cl)c(Cl)c2)CC1 | -5.13%
66 | N#CCSc1nc2ccc(Nc3nc(N4CCOCC4)nc(N4CCOCC4)n3)cc2s1 | -0.725%
67 | CC(Oc1ccc(Cl)cc1Cl)C(=O)N1CCN(c2ccc(Cl)cc2)CC1 (centres unmarked) | 5.31%
68 | CCOc1ccc(NC2=NC(=O)CC(C(=O)Nc3ccccc3)N2)cc1 (centres unmarked) | 0.214%
69 | CCOc1ccc(NC(=O)COc2ccc(F)cc2)cc1 | -1.28%
70 | CCCCn1c(NCc2ccccn2)nc2ccccc21 | -2.65%
71 | CCCCN1C(=O)c2[nH]nc(-c3ccccc3O)c2C1c1ccc(OC)cc1 (centres unmarked) | 8.13%
72 | Cc1ccccc1S(=O)(=O)Cc1ccc(C(=O)NC2CCCCCC2)o1 | 2.14%
73 | CCCC(=O)/N=C(\N)Nc1nc(C)c2cc(C)c(C)cc2n1 | -3.39%
74 | Cc1nn(CC(=O)N2CCOCC2)c(=O)c2c1sc1ccccc12 | -2.45%
75 | COc1cc(OC)cc(C(=O)NC(C)(C)CO)c1 | -1.02%
76 | O=C(N/C(C(=O)N1CCCCC1)=C(\Sc1ncccn1)c1ccccc1)c1ccccc1 | -4.4%
77 | CC1CCCCN1C(=O)c1ccccc1N (centres unmarked) | 1.62%
78 | CC1=CC(C)C(C2OCC3(CO2)C(C)C=C(C)CC3C)C(C)C1 (centres unmarked) | 9.4%

Row | SMILES | % Inhibition @ 10 uM
79 | C=CCn1c(SCC(N)=O)nnc1-c1ccc(OC)c(OC)c1 | -1.3%
80 | CCOCCCn1c(=N)c(C(=O)NCCc2ccccc2)cc2c(=O)n3ccccc3nc21 | 1.97%
81 | COc1cc(CN2CCN(c3ccccc3)CC2)ccc1O | -2.7%
82 | COc1ccc(N(CC(=O)NCc2ccccc2)S(C)(=O)=O)c(OC)c1 | 3.72%
83 | Cc1cc2nc(COc3ccc(C(C)C)cc3)cc(=O)n2o1 | -5.76%
84 | O/N=C1\c2ccccc2/C(=N/O)C1c1cccc2ccccc12 (centres unmarked) | 5.54%
85 | COc1cccc(Cn2nnc(C(=O)O)c2C(=O)O)c1 | 4.23%
86 | Cc1ccc(C2C(C#N)=C(N)Oc3[nH]nc(C(C)(C)C)c32)s1 (centres unmarked) | -2.2%
87 | CCS(=O)(=O)N1CCC2(CC1)OC(=O)C(C)=C2C(=O)NCCCN1CCCC1=O | 0.706%
88 | COCCNC(=O)CSc1nnc(-c2ccc(C)cc2)c(-c2ccc(C)cc2)n1 | -2.14%
89 | COc1cc(CN2C[C@@H]3C[C@H](C2)c2cccc(=O)n2C3)cc(OC)c1OC | -1.85%
90 | C=CCNC(=O)C1CC(c2cnn(CC)c2C)=NO1 (centres unmarked) | -6.68%
91 | COc1ccc(CCNC(=O)CN2CCN(Cc3ccc(F)cc3Cl)S2(=O)=O)cc1OC | -5.13%
92 | CCOC(=O)c1c(NC(=O)CCC(=O)O)sc2c1CCCC2=O | 2.94%
93 | CCCN(CCO)CC1CC=CCC1 (centres unmarked) | 1.08%
94 | CC(C)C(=O)Nc1nc2nc(-c3ccccc3)cc(O)n2n1 | 9.57%
95 | CCOC(=O)C1=C(CC)OC(N)=C(C#N)C1c1ccc(SC)cc1 (centres unmarked) | 4.12%
96 | CCc1nnc(NC(=O)c2ccc(S(=O)(=O)N(C)C3CCCCC3)cc2)o1 | -7.43%
97 | O=C(NC12CC3CC(CC(C3)C1)C2)c1cncc(O)c1 | -1.15%
98 | CN(C)CCNC(=O)CCn1c(=O)c2cccn2c2cccnc21 | 4.14%
99 | Cc1[nH]c2ccccc2c1CCNC(=O)NC(=O)c1ccc(C(F)(F)F)cc1 | 1.93%
100 | O=C1N/C(=C/c2cc3c(cc2Cl)OCO3)C(=O)N1c1ccc(Cl)cc1 | 0.823%
101 | CN(CCc1ccccn1)Cc1cccc(C(F)(F)F)c1 | -0.351%
